Assay results: publication PMC4336329 (PLoS ONE, 2015)
Hit rate of the full screen: of about 310,000 compounds, about 2,200 (0.71%) showed an effect of 50% or more. The effect is printed as a negative number. The list shows a part of the results.

Each molecule was assayed against human ether-à-go-go-related gene (hERG) potassium channel (human, UniProt Q12809) (assay: primary screen, population patch clamp on CHO cells stably expressing hERG).
human ether-à-go-go-related gene (hERG) potassium channel, sequence (Q12809 whole entry, looked up): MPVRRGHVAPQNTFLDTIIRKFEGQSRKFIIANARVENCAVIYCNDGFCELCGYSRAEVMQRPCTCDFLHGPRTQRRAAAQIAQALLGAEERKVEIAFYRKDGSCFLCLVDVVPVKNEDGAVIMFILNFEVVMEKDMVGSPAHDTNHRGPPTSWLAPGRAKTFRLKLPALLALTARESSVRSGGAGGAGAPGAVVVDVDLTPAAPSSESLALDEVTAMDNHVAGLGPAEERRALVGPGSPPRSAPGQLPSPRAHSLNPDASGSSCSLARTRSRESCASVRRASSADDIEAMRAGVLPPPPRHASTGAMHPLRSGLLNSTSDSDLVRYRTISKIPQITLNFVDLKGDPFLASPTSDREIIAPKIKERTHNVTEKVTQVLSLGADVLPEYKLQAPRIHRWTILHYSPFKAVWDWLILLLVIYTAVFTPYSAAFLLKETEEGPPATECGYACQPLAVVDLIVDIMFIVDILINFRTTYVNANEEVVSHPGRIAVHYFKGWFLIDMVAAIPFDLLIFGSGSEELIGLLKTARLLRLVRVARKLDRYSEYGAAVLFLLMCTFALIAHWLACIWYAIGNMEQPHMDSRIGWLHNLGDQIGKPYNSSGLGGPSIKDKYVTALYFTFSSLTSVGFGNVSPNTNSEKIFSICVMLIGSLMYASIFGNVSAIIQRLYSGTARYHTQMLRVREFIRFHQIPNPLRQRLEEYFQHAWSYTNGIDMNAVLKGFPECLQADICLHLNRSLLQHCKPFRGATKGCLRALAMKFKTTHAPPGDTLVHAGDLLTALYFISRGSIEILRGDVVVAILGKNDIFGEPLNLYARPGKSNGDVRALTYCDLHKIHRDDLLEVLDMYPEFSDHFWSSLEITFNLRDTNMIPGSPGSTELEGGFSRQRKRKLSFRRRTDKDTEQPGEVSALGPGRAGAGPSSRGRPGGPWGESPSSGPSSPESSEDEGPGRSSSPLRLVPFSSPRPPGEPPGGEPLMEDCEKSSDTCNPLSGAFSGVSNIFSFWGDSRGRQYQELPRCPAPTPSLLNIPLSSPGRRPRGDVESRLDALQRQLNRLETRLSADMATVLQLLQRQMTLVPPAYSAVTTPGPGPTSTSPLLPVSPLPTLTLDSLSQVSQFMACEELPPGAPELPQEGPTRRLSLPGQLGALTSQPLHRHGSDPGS

Going from `O=C(CN1C(=O)c2cccc3cccc(c23)C1=O)NCCCO` to `Cc1ccc(C(=O)N/C(=C/c2ccco2)C(=O)OCN2C(=O)c3ccccc3C2=O)cc1`, the “hERG current change (%, negative = inhibition) at 1uM” value falls from 9.32% to -12%.

First: COc1ccc(Nc2nnc(-c3ccc(C)cc3)c3ccccc23)cc1C(=O)N1CCCCC1
Second: COc1ccc(CN2C(=O)c3ccccc3C2=O)cc1C(=O)N(C)CC(=O)Nc1ccc(F)cc1
The “hERG current change (%, negative = inhibition) at 1uM” value of the first is lower: 4.22% for the first, 10.4% for the second.

Going from `Cc1cc(C)c(S(=O)(=O)Cc2ccc(Cl)cc2)c(=O)[nH]1` to `Cc1ccc(S(=O)(=O)CCC(=O)Nc2ccc3nc(C)sc3c2)cc1`, the “hERG current change (%, negative = inhibition) at 1uM” value falls from 9.42% to -2.6%.

Going from `O=[N+]([O-])c1cccc(-c2ccc(/C=N/n3c(-c4ccccc4)n[nH]c3=S)o2)c1` to `N#Cc1c(-c2cccc(F)c2)cc(-c2ccccc2)nc1Br`, the “hERG current change (%, negative = inhibition) at 1uM” value rises from 7.65% to 13.8%.

Going from `O=C(CN1CCN(c2ccccn2)CC1)Nc1ccccc1Br` to `O=C(CN1CCN(c2cccc(C(F)(F)F)c2)CC1)NCc1ccccc1`, the “hERG current change (%, negative = inhibition) at 1uM” value falls from 1.89% to -2.08%.

Compared with `Cc1cc(C)c2nc(C(F)(F)F)nc(NCCCN3CCOCC3)c2c1`, `COc1ccc2nc(C)cc(Nc3ccc(N4CCOCC4)cc3)c2c1.Cl` is lower in “hERG current change (%, negative = inhibition) at 1uM” value: 9.96% for the first, -25.1% for the second.

Compared with `CCCC(=O)c1c[nH]c(C(=O)NCc2cccnc2)c1`, `O=C(O)c1ccc(Cl)c(S(=O)(=O)NCc2cccnc2)c1` is lower in “hERG current change (%, negative = inhibition) at 1uM” value: 12.1% for the first, 4.34% for the second.

Compared with `CC1=NCCc2c1[nH]c1ccccc21`, `COc1ccc(/C=N/Nc2ncnc3c2[nH]c2ccccc23)c(OC)c1OC` is higher in “hERG current change (%, negative = inhibition) at 1uM” value: -0.861% for the first, 0.362% for the second.

First: O=C(O)C1CC(=O)N(Cc2ccc(F)cc2)C1 (stereo not drawn)
Second: CC(C)CCN1CC(C(=O)NCc2ccc(F)cc2)CC1=O (stereo not drawn)
The “hERG current change (%, negative = inhibition) at 1uM” value of the first is higher: 3.81% for the first, 3.61% for the second.

First: CCCCn1c(N)c(N(CC(C)C)C(=O)CCCc2nc3ccccc3s2)c(=O)[nH]c1=O
Second: CCCCn1c(N)c(N(CCOC)C(=O)c2cc(-c3ccc(C)cc3)nc3ccccc23)c(=O)[nH]c1=O
The “hERG current change (%, negative = inhibition) at 1uM” value of the first is higher: 15.3% for the first, 2.24% for the second.

First: Cc1ccc(S(=O)(=O)NC(C)(C)CN2CCCCC2)cc1
Second: COc1ccc(N2CCN(C(=O)CCNS(=O)(=O)c3ccc(C)cc3)CC2)cc1
The “hERG current change (%, negative = inhibition) at 1uM” value of the first is higher: 3.13% for the first, -2.06% for the second.

First: CCN1CCN(c2ccc(S(=O)(=O)N3CCCCC3)cc2NC(=O)c2ccc(OC(F)F)cc2)CC1
Second: O=C(NC1CCS(=O)(=O)C1)c1ccc(N2CCCCC2)c([N+](=O)[O-])c1 (stereo not drawn)
The “hERG current change (%, negative = inhibition) at 1uM” value of the first is lower: -56.4% for the first, 11.9% for the second.

Going from `Cc1ccccc1OCC(=O)OCn1nnc2ccccc2c1=O` to `Cc1ccccc1OCC(=O)NNC(=O)Nc1ccc(Cl)cc1`, the “hERG current change (%, negative = inhibition) at 1uM” value falls from 11.9% to 8.16%.

First: Cc1ccccc1S(=O)(=O)N(CC(O)CN1C(=O)NC(C)(C)C1=O)c1ccccc1 (stereo not drawn)
Second: CCCN(C(=O)COC(=O)Cn1c(=O)oc2ccccc21)c1c(N)n(Cc2ccccc2)c(=O)[nH]c1=O
The “hERG current change (%, negative = inhibition) at 1uM” value of the first is higher: 15.1% for the first, 7.44% for the second.

Compared with `O=[N+]([O-])c1ccc(Cl)cc1CNc1ccc(F)c(F)c1`, `O=c1c2ccccc2nc2sc(Nc3cccc(Cl)c3)nn12` is lower in “hERG current change (%, negative = inhibition) at 1uM” value: 16.2% for the first, 3.99% for the second.

Going from `N#C/C(=N\Nc1cccc(F)c1)C(=N)N1CCCCCC1` to `COc1ccc(NC(=O)CC(C(=O)O)N2CCCCC2)cc1` (stereo not drawn), the “hERG current change (%, negative = inhibition) at 1uM” value falls from 1.26% to 0.647%.

Compared with `CC(=O)NCC(c1cccs1)S(=O)(=O)c1ccc(F)cc1` (stereo not drawn), `Cc1ccc(S(=O)(=O)N2CCCC2CNC(=O)c2ccccc2)cc1` (stereo not drawn) is lower in “hERG current change (%, negative = inhibition) at 1uM” value: 15.1% for the first, 8.07% for the second.

Going from `COc1ccc(-c2ccc(-c3nnn(CC(=O)N4CCOCC4)n3)cc2)cc1` to `COc1cccc(N2CCN(CC(=O)NC(=O)NCc3ccco3)CC2)c1`, the “hERG current change (%, negative = inhibition) at 1uM” value rises from -2.74% to 15.8%.

First: COc1ccccc1Nc1nn2c(=O)c3ccc(C(=O)N4CCC(C)CC4)cc3nc2s1
Second: O=C(OCc1nc2ccccc2s1)C1CCN(C2=NS(=O)(=O)c3ccccc32)CC1
The “hERG current change (%, negative = inhibition) at 1uM” value of the first is higher: 23.4% for the first, -7.74% for the second.

Compared with `Cc1ccc(C(=O)NCCCNC(=O)c2ccc(C)nc2)cc1`, `CCOc1ccc(CCNC(=O)c2ccc3c(=O)[nH]c4c(C(=O)NC(C)C)sc(=S)n4c3c2)cc1` is lower in “hERG current change (%, negative = inhibition) at 1uM” value: 12.8% for the first, 0.436% for the second.

Going from `Cc1noc2ncnc(Oc3cc(Cl)ccc3Cl)c12` to `COc1ccc(NC(=O)NNC(=O)c2ccc(Cl)cc2Cl)cc1OC`, the “hERG current change (%, negative = inhibition) at 1uM” value falls from 12.8% to -4.19%.

Going from `O=C(O)C(=O)O.O=S(=O)(c1ccc(Cl)cc1)N(CCCN1CCOCC1)Cc1cccs1` to `O=C(NCCCn1ccnc1)C(=O)NCC1OCCN1S(=O)(=O)c1ccccc1` (stereo not drawn), the “hERG current change (%, negative = inhibition) at 1uM” value rises from -10.2% to 12.2%.

Compared with `COC(=O)c1ccccc1NC(=O)CCC(=O)N1CC(C)Oc2ccc(C)cc21` (stereo not drawn), `COc1cccc(NC(=O)COC(=O)c2c(-c3ccccc3)noc2C)c1` is higher in “hERG current change (%, negative = inhibition) at 1uM” value: 10% for the first, 11.2% for the second.

Compared with `CCOc1ccccc1NC(=O)CCn1cccc1`, `COc1ccc(NC(=O)CCn2cccc2)cc1` is lower in “hERG current change (%, negative = inhibition) at 1uM” value: 14.1% for the first, -0.263% for the second.

Going from `COc1cccc(-c2cc(C(=O)Nc3ccn(Cc4ccc(C)cc4)n3)no2)c1` to `O=C(O)c1ccc(CSc2nnc(-c3ccccc3Cl)n2-c2ccccc2)cc1`, the “hERG current change (%, negative = inhibition) at 1uM” value rises from 7.67% to 11.2%.

Compared with `Cc1coc2c(C)c3oc(=O)c(CCC(=O)NCCC(=O)O)c(C)c3cc12`, `CCOC(=O)CCNC(=O)CCc1nnc(CCCc2ccccc2)o1` is lower in “hERG current change (%, negative = inhibition) at 1uM” value: 13.5% for the first, 10.6% for the second.

First: CCOC(=O)C(NC(=O)C(Cc1ccc(N(CCCl)CCCl)cc1)NC(C)=O)C(C)C (stereo not drawn)
Second: Cc1ncc([N+](=O)[O-])n1CCOC(=O)NC(Nc1ccc(F)cc1)C(Cl)(Cl)Cl (stereo not drawn)
The “hERG current change (%, negative = inhibition) at 1uM” value of the first is higher: 7.62% for the first, -29.3% for the second.

Going from `Cc1noc(C)c1COc1ccc(C(=O)OCC(N)=O)cc1` to `CCCc1c(C)nc2ccc(OC)cc2c1SCCC(=O)O`, the “hERG current change (%, negative = inhibition) at 1uM” value falls from 12.3% to 8.26%.

Going from `CC1CC(C)CN(C(=O)c2nn(C)c3c2CSc2ccccc2-3)C1` (stereo not drawn) to `O=C1N(c2ccccc2)C[C@@H]2C[C@@H](c3cccs3)N3CCC[C@@]123`, the “hERG current change (%, negative = inhibition) at 1uM” value falls from 12.5% to 6.57%.

First: COc1ccc(N2C(=O)CSC2c2ccccc2[N+](=O)[O-])cc1 (stereo not drawn)
Second: C=C(C)C(=O)Oc1ccc(N2C(=O)CCC2=O)cc1
The “hERG current change (%, negative = inhibition) at 1uM” value of the first is higher: 10.3% for the first, 6.83% for the second.

Going from `CC(C)(C)OC(=O)c1c(N)n(Cc2ccco2)c2nc3ccccc3nc12` to `Cc1cc(C)cc(NC(=O)Nc2ccc3ccccc3n2)c1`, the “hERG current change (%, negative = inhibition) at 1uM” value rises from 4.64% to 13.5%.

Going from `O=[N+]([O-])c1ccc(C(O)CN=Cc2ccc(O)cc2O)cc1` (stereo not drawn) to `COc1ccc(/C=C(/NC(=O)c2cccc([N+](=O)[O-])c2)C(=O)O)cc1OC`, the “hERG current change (%, negative = inhibition) at 1uM” value falls from 13.8% to 13.6%.

First: COc1ccccc1C(c1c(O)nc(SC)[nH]c1=O)c1c(O)nc(SC)[nH]c1=O
Second: CCOC(=O)c1[nH]c(C)c(/C(O)=C2\C(=O)C(=O)N(CCN(C)C)C2c2cccc(OC)c2OC)c1C (stereo not drawn)
The “hERG current change (%, negative = inhibition) at 1uM” value of the first is higher: 16.2% for the first, 9.23% for the second.

Compared with `Oc1ccc(Br)cc1-c1ccn[nH]1`, `Cc1cc(C)n(CCC(=O)N/N=C/c2ccc(O)cc2)n1` is higher in “hERG current change (%, negative = inhibition) at 1uM” value: 5.4% for the first, 14.7% for the second.

Going from `C=CCn1c(SCC(=O)NNC(=O)Nc2ccc(C)cc2)nnc1-c1ccccc1` to `CCn1c(SCC(=O)Nc2cccc(NC(C)=O)c2)nnc1-c1ccco1`, the “hERG current change (%, negative = inhibition) at 1uM” value rises from 1.92% to 15.3%.

First: Cc1cc(=O)oc(C)c1C(=O)Nc1cccnc1Cl
Second: Cc1nn(CCCC(=O)Nc2cccnc2)c(C)c1[N+](=O)[O-]
The “hERG current change (%, negative = inhibition) at 1uM” value of the first is lower: 12.8% for the first, 13.2% for the second.

Going from `CCN1CCN(S(=O)(=O)c2cc(OC)c(Cl)cc2OC)CC1` to `Cc1ccc2c(c1)N(CCCC(=O)NCCCN1CCCCC1)C(=O)CO2`, the “hERG current change (%, negative = inhibition) at 1uM” value falls from 9.91% to 8.19%.

Going from `O=C(NC1CC(=O)N(c2ccccc2)C1)C(=O)c1c[nH]c2ccccc12` (stereo not drawn) to `CS(=O)(=O)Nc1ccccc1C(=O)OCC(=O)N1CCC(c2ccccc2)=N1`, the “hERG current change (%, negative = inhibition) at 1uM” value falls from -1.49% to -9.49%.

Going from `S=C(Nc1ccc(Nc2ccccc2)cc1)N1CCN(c2ncccn2)CC1` to `O=C(O)/C=C/c1cccc(NS(=O)(=O)c2ccccc2)c1`, the “hERG current change (%, negative = inhibition) at 1uM” value falls from 13.7% to 2.64%.

Compared with `CC(=O)N1C=CN(C(C)=O)C(c2cn(C)c3ccccc23)C1c1cn(C)c2ccccc12` (stereo not drawn), `CC(=O)c1c(C)n(CC(=O)NCc2ccc3c(c2)OCO3)c2ccccc12` is higher in “hERG current change (%, negative = inhibition) at 1uM” value: -3.46% for the first, 5.8% for the second.

Compared with `COc1ccc(S(=O)(=O)N/N=c2\oc3c(OC)cccc3cc2S(=O)(=O)c2ccc(C)cc2)cc1OC`, `CSc1ccccc1-c1nnc(-c2ccc(Cl)cc2)o1` is lower in “hERG current change (%, negative = inhibition) at 1uM” value: 12.9% for the first, 6.44% for the second.

First: COCCN(CC(=O)NC1CCCCC1)C(=O)CSc1nc2ccccc2o1
Second: CCOC(=O)Cc1nc2ccccc2o1
The “hERG current change (%, negative = inhibition) at 1uM” value of the first is higher: 9.08% for the first, 9.03% for the second.

Going from `Cc1ccc(C2CC(c3cccs3)=NN2C(=O)CSC2=NN3CCCC(=O)N=C3S2)cc1` (stereo not drawn) to `Cc1cc(C)cc(NC(=O)CC2Oc3ccc(C)cc3NC2=O)c1` (stereo not drawn), the “hERG current change (%, negative = inhibition) at 1uM” value rises from 5.17% to 12.3%.

With `CCCCCn1c(N2CCCC2)nc2c1c(=O)n(C)c(=O)n2C` the “hERG current change (%, negative = inhibition) at 1uM” value was 0.57%.
